# Test results taken from PMC6212790.
# The other results are listed elsewhere or left out. At the low end of the ranking the order means little.
# Target: T1, GST-Rok (full length) (UniProt O34857)
# T1 sequence: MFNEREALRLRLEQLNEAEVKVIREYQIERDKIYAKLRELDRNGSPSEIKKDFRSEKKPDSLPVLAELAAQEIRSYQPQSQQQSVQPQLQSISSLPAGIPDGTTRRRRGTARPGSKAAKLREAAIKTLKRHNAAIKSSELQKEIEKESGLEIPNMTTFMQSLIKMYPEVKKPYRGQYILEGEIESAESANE
# Test: protein binding microarray;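 also: rank score from −0.5 (least bound) to 0.5 (best bound)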
# Conditions: Rok is a gene silencer of Bacillus subtilis; high values mean tight binding; most listed sequences are background and not binding sites; double strand, one strand shown
row,Sequence,binding signal [E-score]
1,ATCGGGTA,0.101
2,AAGCGCAT,-0.128
3,AAAACTGT,-0.0241
4,AACAGCTG,-0.114
5,CAGATGGA,-0.0806
6,GGGCCCCA,-0.367
7,ATACCCCG,-0.0652
8,GCAAATAA,0.0797
9,CGGGTTAA,-0.0758
10,CCAGGCCG,-0.203
11,AGGGCTCG,-0.311
12,AGGTGGCG,-0.164
13,CGGCTTGC,-0.137
14,ATAGAATA,0.356
15,CTACACGA,0.22
16,AACCTACC,0.261
17,ATTAACTG,0.14
18,AGCTTCTG,-0.0196
19,GTAAGTCA,-0.0377
20,TAGACTCA,-0.0914
21,AGGTAGAG,0.122
22,ATTGGGCA,-0.0946
23,CTCACATC,-0.0789
24,GCTAGTTA,0.337
25,CCCCAAAC,-0.114

row,Sequence,binding signal [E-score]
1,CGCACATC,0.118
2,GACACCTC,-0.168
3,TAGAGGCA,-0.0316
4,CGAGTTAA,0.153
5,ACCGGGTA,0.0353
6,CACCTCCA,-0.127
7,CTAGGAAC,-0.0546
8,CTAACTGC,-0.0169
9,ACGGCGGC,-0.225
10,CGGTACCG,-0.0707
11,AGAATGCA,0.0884
12,ATCTTCGA,0.116
13,GGGCACCC,-0.421
14,AAAATGGC,0.0869
15,GCCGGACA,-0.142
16,CATTTCCC,-0.245
17,CCGAGGTA,0.0763
18,AAATCGGT,0.0362
19,GAGTTAGC,0.0512
20,AGAGGGAA,-0.215
21,ACGCATCC,-0.0312
22,ACAGATCG,-0.185
23,GATCCGTA,0.127
24,ATGTCTAA,0.156
25,AAGAACAC,-0.118

row,Sequence,binding signal [E-score]
1,CATCCTCA,-0.17
2,GGAAGCAC,-0.116
3,AGGTCCAC,-0.218
4,ACGGCACC,-0.184
5,ACCGGCGT,-0.171
6,ATCTCTTC,-0.0167
7,GTGGATAA,0.0153
8,CTTAGACA,-0.177
9,CATCTAAG,0.0719
10,GATGGGAC,-0.21
11,CACCCCCC,-0.431
12,TCCTCGCA,-0.117
13,ACGAGTCA,-0.175
14,ATTGAAGG,-0.154
15,CTAAGGTA,0.184
16,CTTATTCC,0.0398
17,AACCATAG,0.0557
18,GCGGTGCC,-0.338
19,CATTTCGC,0.0599
20,AGCCAGAA,-0.231
21,CCTAGTAG,0.233
22,AAGGCATA,-0.00109
23,CGGGACAC,-0.2
24,AATGAGCA,-0.0821
25,AGAACTAC,0.327

row,Sequence,binding signal [E-score]
1,ATAAAATA,0.426
2,GAAATTTA,0.257
3,AATACCTC,0.0643
4,CTGCGTGC,-0.096
5,AATCATCC,-0.19
6,ACAGCCAT,0.0912
7,CGAGCGTA,-0.132
8,AATATCCG,0.19
9,AGAGTCAG,-0.00297
10,AGGCTTGC,0.00461
11,CGCTCAGA,-0.068
12,CTTGCGCC,-0.391
13,ATATACAT,0.302
14,CCCGATGA,-0.235
15,ACCTAGAC,0.0548
16,GTCATAGA,-0.0811
17,TCCCCGGA,-0.278
18,AAACGAAC,-0.0489
19,CTGCAACC,-0.0202
20,TGACAAAA,0.0614
21,ACTATTGC,0.401
22,AGATGACA,0.122
23,AAGACTGC,-0.0879
24,AGTGAATC,-0.0713
25,ACAAGCGC,-0.0126

row,Sequence,binding signal [E-score]
1,CCGATCGC,-0.204
2,GTCGTCCA,-0.219
3,GTAATCTA,0.245
4,GAAAAAGA,-0.0371
5,AGATTGCG,0.0888
6,ACCGTTTC,-0.193
7,CGATGAGC,-0.131
8,CAAAGCTA,0.116
9,CCATCCAA,0.0204
10,ATCCGTGG,-0.381
11,ATCGTACG,0.123
12,ACCCTTCT,-0.185
13,TTGCCCAA,-0.068
14,ATGGGCAA,-0.107
15,GCCCATCA,-0.229
16,GCCTACGC,-0.122
17,CATTTAGA,0.0489
18,GACGTAGC,0.0184
19,TCTAGGAA,-0.0926
20,CGTTAATA,0.296
21,GGTGTAAA,0.0751
22,GACTGTCC,-0.139
23,GGGGATAC,-0.178
24,AACAATGG,-0.0288
25,CTTTATGA,0.179

row,Sequence,binding signal [E-score]
1,AGTCGAGA,-0.074
2,CAGTTACA,0.24
3,ACGTGTCG,-0.0685
4,ACGGTCAC,-0.0241
5,GCACTACC,-0.000872
6,GCACTTGA,-0.166
7,AAGGCGTG,-0.143
8,CTATTTAC,0.342
9,CGGAAGAC,-0.147
10,CGTAGTTC,0.255
11,CGGTTCAA,-0.118
12,ACCAGGCG,-0.11
13,CACCTAAG,-0.219
14,AGCTACAA,0.205
15,CAGCCGCA,-0.227
16,CCTTTCTA,0.158
17,ATGCCAGA,-0.172
18,AATACTTA,0.316
19,ACGGTAAA,0.349
20,ATAACTGA,0.206
21,GTCCGAGA,-0.0843
22,CACTCGGA,-0.103
23,AAGTAATT,0.328
24,CGCCTAAG,-0.126
25,GGGCGACC,-0.447

row,Sequence,binding signal [E-score]
1,CCGGCCCA,-0.196
2,GTGATATA,0.25
3,ACTTTCAG,0.0674
4,ATAACGCA,0.155
5,ACCGCGCG,0.0271
6,TTAGATAA,0.251
7,GGCTATGA,-0.078
8,AGCATTGG,-0.186
9,AACCCCCA,-0.396
10,AAAGTCGG,-0.122
11,CTTCCAAA,-0.0355
12,GCTGCACC,-0.361
13,CTATCTTC,0.11
14,TCGGCCCA,-0.134
15,AATATTCT,0.338
16,AGCAGACG,0.136
17,GAGCTATC,0.107
18,ATTTTACA,0.311
19,CTCTATAA,0.0692
20,CCTCTGCA,-0.125
21,TTCATAAA,0.127
22,GCAGTCCA,-0.102
